PubChem BioAssay AID624417 (National Center for Advancing Translational Sciences (NCATS), 2012)
The campaign covered roughly 410,000 compounds. About 6,400 (1.6%) were called active. Inconclusive results, whose numbers are uncertain, are shown with a selection of clear calls. The call rests on the fitted dose curve; in most records, active means well fitted inhibition curve with a large enough effect; inconclusive means small, poorly fitted or top-dose-only effect; inactive means no such curve, though single readings can be large or run the other way. Potencies of inconclusive entries are left out as doubtful fits.

The compounds below were run against Glucagon-like peptide 1 receptor (Homo sapiens) (UniProt P43220) (assay: qHTS of GLP-1 Receptor Inverse Agonists (Inhibition Mode)). Conditions: HEK293 GLP-1R CRE-luciferase, luminescence, 24 h, GLP-1R form is constitutively active; series mostly up to 38.3 µM.
Sequence of UniProt P43220 (P43220 whole entry, looked up): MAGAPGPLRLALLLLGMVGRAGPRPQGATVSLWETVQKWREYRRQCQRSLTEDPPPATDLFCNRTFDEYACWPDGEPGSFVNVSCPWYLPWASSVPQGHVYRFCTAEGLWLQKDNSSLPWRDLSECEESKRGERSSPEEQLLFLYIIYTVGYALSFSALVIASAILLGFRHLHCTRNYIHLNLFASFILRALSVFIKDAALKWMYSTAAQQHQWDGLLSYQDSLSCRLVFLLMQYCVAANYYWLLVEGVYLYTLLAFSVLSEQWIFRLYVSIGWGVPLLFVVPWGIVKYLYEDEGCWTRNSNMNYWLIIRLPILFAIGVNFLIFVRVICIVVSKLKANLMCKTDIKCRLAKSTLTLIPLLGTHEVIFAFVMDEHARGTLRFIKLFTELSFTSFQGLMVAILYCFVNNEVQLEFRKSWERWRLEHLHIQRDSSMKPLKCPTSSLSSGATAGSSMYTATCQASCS
Procedure, shortened: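 Stable HEK293 clone (constitutively active GLP-1R + cAMP-response luciferase); 200 cells/uL plated, 12 h pre-culture, compound 24 hr, 37 deg C/5% CO2; detection reagent 12 min RT; luminescence.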
Further: nearly all actives have a fitted effect of over 55% in size.
Potency means the concentration at half of the fitted maximal effect; tags describe the fitted curve by direction and shape.

SMILES | Potency
N#Cc1c(-c2ccc(Br)cc2)nc2n(c1=O)CCCS2 | inactive
Cc1cccc(OCC(=O)NNC(=O)C2CCN(c3ncnc4sc(C)c(C)c34)CC2)c1 | inconclusive [inhibitor, partial curve]
COc1cccc(CNC(=O)CCNS(=O)(=O)c2ccc(C)cc2)c1 | inactive
COc1ccc(CNC(=O)CN(Cc2ccc(F)cc2)C(=O)CCC(=O)Nc2nccs2)cc1 | inconclusive [inhibitor, single point]
C=C1C(=O)C=C[C@]2(C)C[C@@H]3OC(=O)[C@](C)(O)[C@H]3C[C@@H]12 | inconclusive [inhibitor, single point]
Cc1ccc(CSCC(=O)NCc2ccc3c(c2)OCO3)cc1 | inconclusive [inhibitor, partial curve]
CCOc1ccc(/C=N/Nc2ccccc2)cc1 | inconclusive [inhibitor, partial curve, poor fit]
Cc1ccc(NC(=O)c2cc(S(=O)(=O)NC3CCCCCC3)ccc2F)cc1F | inconclusive [inhibitor, partial curve, poor fit]
CCOc1ccc(-c2nnc(SCC(=O)NCc3ccc(Cl)cc3)o2)cc1 | inactive
CCOc1ccc(OCC)c(NC(=O)CC2Oc3ccccc3NC2=O)c1 (configuration not stated) | inconclusive [inhibitor, full curve, poor fit]
CC[n+]1c(/C=C/C=C/N(C(C)=O)c2ccccc2)sc2cc(OC)ccc21 | inconclusive [inhibitor, single point]
CN(C)CCNC(=O)C1Cc2c(-c3ccccc3Oc3ccccc3)ccnc2O1 (configuration not stated) | inconclusive [inhibitor, single point]
Fc1ccccc1Cn1cc(C(=S)N2CCOCC2)c2ccccc21 | inconclusive [inhibitor, single point]
CCc1ccc(C(=O)COC(=O)c2cc([N+](=O)[O-])ccc2N2CCOCC2)cc1 | inconclusive [inhibitor, partial curve, poor fit]
O=C(NC1CCN(Cc2ccccc2)CC1)C1CCCN(S(=O)(=O)c2cccc3nonc23)C1 (configuration not stated) | inconclusive [inhibitor, single point]
CCCCN(C=O)c1c(CC)nc2c(OCc3ccc(Cl)cc3Cl)cccn12 | inconclusive [inhibitor, partial curve, poor fit]
Cc1onc(-c2ccccc2Cl)c1-c1nc(-c2ccncc2)no1 | inconclusive [inhibitor, single point]
CCN(CC)CCn1c2ccccc2c2cnc(N=CN(C)C)c(C#N)c21 | inconclusive [inhibitor, single point]
COc1ccc(NC(=S)NC(=O)/C=C/c2cccs2)cc1 | inconclusive [inhibitor, single point]
O=C(NCCc1ccc(Cl)cc1)c1n[nH]c2ccccc12 | inconclusive [inhibitor, partial curve, poor fit]
CCN(CC)c1ccc(/C=C2\SC(=O)N(C(C)C)C2=O)o1 | inconclusive [inhibitor, single point]

SMILES | Potency
COc1ccc(N2CCN(C(=O)CSc3nnc(C4CC4)n3C3CC3)CC2)cc1 | inconclusive [inhibitor, partial curve]
COc1cc(C(=O)NCCCN2CCCC2=O)cc(Br)c1OCc1ccccc1 | inconclusive [inhibitor, partial curve]
CCC(C)c1ccc(NC(=S)Nc2ccc(OC)cc2C)cc1 (configuration not stated) | inconclusive [inhibitor, single point]
CCOC(=O)C[n+]1c(C)sc2ccc(OC)cc21 | inconclusive [inhibitor, single point]
CC[C@@]1(c2ccccc2C)C(=O)N(C(=O)OC)N1C(=O)OC | inactive
O=C(/C=C/c1ccc2c(c1)OCCCO2)c1ccccc1O | inconclusive [inhibitor, partial curve, poor fit]
CC(C)Oc1cccc(C(=O)C2CCCN(Cc3cnn(C(C)C)c3)C2)c1 (configuration not stated) | inconclusive [inhibitor, single point]
Cc1nnc(SCC(=O)Nc2ncc3c(n2)CC(c2ccccc2)CC3=O)s1 (configuration not stated) | inconclusive [inhibitor, full curve, poor fit]
O=S(=O)(c1cccc(-c2nnc(SC(F)F)n2-c2ccccc2)c1)N1CCCCC1 | inconclusive [inhibitor, single point]
Cc1ccc(C(=O)N(C)CC(=O)Nc2ccc(Cl)c(C(F)(F)F)c2)cc1S(=O)(=O)N1CCCCC1 | inconclusive [inhibitor, partial curve, poor fit]
COc1ccc(C(=O)c2cnc3ccc(C)cc3c2S(=O)(=O)c2ccccc2)cc1 | inconclusive [inhibitor, single point]
O=C(CN1C(=O)C2(SCC(=O)N2c2ccccc2)c2ccccc21)Nc1ccccc1C(F)(F)F (configuration not stated) | inactive
NS(=O)(=O)c1ccc(NC(=S)NC2CCCCC2)cc1 | inconclusive [inhibitor, partial curve, poor fit]
CC(C)n1ncc2c(C(=O)N3CCN(c4ccccc4)CC3)cc(-c3ccccc3)nc21 | inconclusive [inhibitor, single point]
Cc1cccc(CN2C(=O)CSc3ccc(C(=O)NC4CC4)cc32)c1 | inconclusive [inhibitor, partial curve, poor fit]
Cc1nc(Nc2nc3ccccc3o2)nc2c1CCC2 | inconclusive [inhibitor, single point]
COc1cc(/C=N/O)ccc1OCc1ccc(C(=O)O)cc1 | inconclusive [inhibitor, full curve, poor fit]
Fc1cccc(Cl)c1CNC(c1ccccc1)c1ccccc1 | inconclusive [inhibitor, partial curve, poor fit]
Cn1c(SCC(=O)Nc2nccs2)nnc1C12CC3CC(CC(C3)C1)C2 | inconclusive [inhibitor, single point]
CCC(C)Nc1nc(-c2cccc(OC)c2O)nc2ccccc12 (configuration not stated) | inconclusive [inhibitor, partial curve, poor fit]
COc1ccc(CCNC(=O)c2ccc(Cl)c(S(=O)(=O)N3CCCC3)c2)cc1 | inconclusive [inhibitor, partial curve, poor fit]

SMILES | Potency
CC(C)CC1C(=O)N(Cc2cn(CC3CCCCC3)nn2)CCS(=O)(=O)N1Cc1ccc(-c2cccc(C#N)c2)cc1 (configuration not stated) | inconclusive [inhibitor, single point]
CCc1nc2ccc(C(=O)Nc3cc(-c4ccccc4)ccc3OC)cn2c1N(CC)Cc1cccc(Br)c1 | inconclusive [inhibitor, partial curve, poor fit]
CN(C(=O)c1ccco1)c1nc2c(s1)CCCC2 | inconclusive [inhibitor, partial curve, poor fit]
COc1ccc(C(=O)/C=C/c2ccc(OCc3ccccc3)cc2)cc1CSCC(=O)O | inconclusive [inhibitor, single point]
Cc1cccc(C)c1NC(=O)NCCCN1CCN(c2ccccc2)CC1 | inactive
CC(C)(C)c1ccc(C(=O)NNc2ncnc3c2cnn3-c2ccc(Cl)cc2)cc1 | inactive
CCN(CC)C(=O)Cn1nc(-c2ccc(Cl)cc2)c2ccccc2c1=O | inconclusive [inhibitor, partial curve, poor fit]
COc1ccc(NC(=S)N(CCN(C)C)Cc2cccs2)cc1 | inconclusive [inhibitor, partial curve, poor fit]
COc1cc(CN(C(=O)COc2ccc(Cl)cc2)c2ccccn2)cc(OC)c1OC | inactive
CN(C(=O)Nc1ccccc1)C1CCCc2ccccc21 (configuration not stated) | inconclusive [inhibitor, single point]
O=C(CN(Cc1ccccc1)C(=O)c1cc2c(s1)CCC2)NCc1cccs1 | inconclusive [inhibitor, single point]
O=C(Nc1cc2c3c(c1)C1CCCC1CN3CC1CCCC21)c1ccc([N+](=O)[O-])cc1 (configuration not stated) | inconclusive [inhibitor, partial curve, poor fit]
O=C(NNc1ccc([N+](=O)[O-])cc1)c1ccccc1Cl | active: 1.78 µM
COc1cccc(C2CC(C(F)(F)F)n3nc(C(=O)NCc4cccnc4)cc3N2)c1 (configuration not stated) | inconclusive [inhibitor, partial curve, poor fit]
COc1cccc(-n2c(SCC(=O)Nc3cccc(C)c3)nc3c([nH]c4ccccc43)c2=O)c1 | inactive
CC/C(=N/NC(=O)c1ccc(Br)cc1)c1ccc(OCCN2CCOCC2)cc1 | inconclusive [inhibitor, partial curve, poor fit]
O=C(c1cccc(-n2cccc2)c1)N1CCN(S(=O)(=O)c2ccccc2Br)CC1 | inconclusive [inhibitor, partial curve, poor fit]
Cc1cccc(NC(=O)c2cc(CN3CCOCC3)on2)c1C | inactive
N#Cc1ccc(C(c2nnnn2CCc2ccccc2)N2CCCCCC2)cc1 (configuration not stated) | inconclusive [inhibitor, single point]
CCCCc1nn2c(=O)cc(CN(CC)c3ccccc3)nc2s1 | inconclusive [inhibitor, single point]
